Experimental data: the CheMixHub viscosity set
± gives the uncertainty stated by the source. The source gives many values for each of these; only a part stands here.

Test: xn = mol fraction of the nth substance listed

## NCCO + O
298.15 K, 101 kPa, x1 = 0.0313
  viscosity: 1.246 ± 0.008 mPa·s
298.15 K, 101 kPa, x1 = 0.0674
  viscosity: 1.75 ± 0.012 mPa·s
298.15 K, 101 kPa, x1 = 0.1102
  viscosity: 2.554 ± 0.017 mPa·s
298.15 K, 101 kPa, x1 = 0.1626
  viscosity: 3.786 ± 0.025 mPa·s
298.15 K, 101 kPa, x1 = 0.2322
  viscosity: 5.801 ± 0.037 mPa·s
298.15 K, 101 kPa, x1 = 0.3032
  viscosity: 8.459 ± 0.052 mPa·s
298.15 K, 101 kPa, x1 = 0.4194
  viscosity: 13.04 ± 0.08 mPa·s
298.15 K, 101 kPa, x1 = 0.4653
  viscosity: 14.71 ± 0.09 mPa·s
298.15 K, 101 kPa, x1 = 0.5382
  viscosity: 16.83 ± 0.1 mPa·s
298.15 K, 101 kPa, x1 = 0.622
  viscosity: 17.92 ± 0.11 mPa·s
298.15 K, 101 kPa, x1 = 0.7228
  viscosity: 19.19 ± 0.12 mPa·s
298.15 K, 101 kPa, x1 = 0.8446
  viscosity: 19.46 ± 0.13 mPa·s
303.15 K, 101 kPa, x1 = 0.0313
  viscosity: 1.088 ± 0.007 mPa·s
303.15 K, 101 kPa, x1 = 0.0674
  viscosity: 1.49 ± 0.01 mPa·s
303.15 K, 101 kPa, x1 = 0.1626
  viscosity: 3.086 ± 0.02 mPa·s
303.15 K, 101 kPa, x1 = 0.2322
  viscosity: 4.829 ± 0.031 mPa·s
303.15 K, 101 kPa, x1 = 0.3032
  viscosity: 6.924 ± 0.043 mPa·s
303.15 K, 101 kPa, x1 = 0.4194
  viscosity: 10.48 ± 0.06 mPa·s
303.15 K, 101 kPa, x1 = 0.4653
  viscosity: 11.8 ± 0.07 mPa·s
303.15 K, 101 kPa, x1 = 0.5382
  viscosity: 13.39 ± 0.08 mPa·s
303.15 K, 101.3 kPa, x1 = 0.1122
  viscosity: 2.062 ± 0.017 mPa·s
303.15 K, 101.3 kPa, x1 = 0.2278
  viscosity: 4.543 ± 0.036 mPa·s
303.15 K, 101.3 kPa, x1 = 0.3067
  viscosity: 6.862 ± 0.051 mPa·s
303.15 K, 101.3 kPa, x1 = 0.4076
  viscosity: 9.966 ± 0.071 mPa·s
303.15 K, 101.3 kPa, x1 = 0.5412
  viscosity: 13.27 ± 0.093 mPa·s
303.15 K, 101.33 kPa, x1 = 0.0506
  viscosity: 1.27 ± 0.016 mPa·s
303.15 K, 101.33 kPa, x1 = 0.069
  viscosity: 1.48 ± 0.036 mPa·s
308.15 K, 101.3 kPa, x1 = 0.2278
  viscosity: 3.788 ± 0.029 mPa·s
308.15 K, 101.3 kPa, x1 = 0.3067
  viscosity: 5.579 ± 0.043 mPa·s
308.15 K, 101.3 kPa, x1 = 0.4076
  viscosity: 7.974 ± 0.059 mPa·s
308.15 K, 101.3 kPa, x1 = 0.5412
  viscosity: 10.5 ± 0.076 mPa·s
308.15 K, 101.3 kPa, x1 = 0.6257
  viscosity: 11.52 ± 0.082 mPa·s
308.15 K, 101.3 kPa, x1 = 0.7264
  viscosity: 12.1 ± 0.086 mPa·s
308.15 K, 101.3 kPa, x1 = 0.8486
  viscosity: 12.37 ± 0.088 mPa·s
313.15 K, 100 kPa, x1 = 0.2
  viscosity: 2.84 ± 0.05 mPa·s
313.15 K, 100 kPa, x1 = 0.4
  viscosity: 6.48 ± 0.12 mPa·s
313.15 K, 100 kPa, x1 = 0.5
  viscosity: 8.13 ± 0.14 mPa·s
313.15 K, 100 kPa, x1 = 0.7
  viscosity: 9.92 ± 0.18 mPa·s
313.15 K, 101 kPa, x1 = 0.0313
  viscosity: 0.871 ± 0.006 mPa·s
313.15 K, 101 kPa, x1 = 0.2322
  viscosity: 3.473 ± 0.023 mPa·s
313.15 K, 101 kPa, x1 = 0.3032
  viscosity: 4.745 ± 0.031 mPa·s
313.15 K, 101 kPa, x1 = 0.4194
  viscosity: 7.014 ± 0.044 mPa·s
313.15 K, 101 kPa, x1 = 0.5382
  viscosity: 8.808 ± 0.056 mPa·s
313.15 K, 101 kPa, x1 = 0.622
  viscosity: 9.592 ± 0.061 mPa·s
313.15 K, 101 kPa, x1 = 0.7228
  viscosity: 10.32 ± 0.07 mPa·s
313.15 K, 101 kPa, x1 = 0.8446
  viscosity: 10.46 ± 0.07 mPa·s
313.15 K, 101.3 kPa, x1 = 0.1122
  viscosity: 1.573 ± 0.012 mPa·s
313.15 K, 101.3 kPa, x1 = 0.2278
  viscosity: 3.228 ± 0.025 mPa·s
313.15 K, 101.3 kPa, x1 = 0.3067
  viscosity: 4.673 ± 0.036 mPa·s
313.15 K, 101.3 kPa, x1 = 0.4076
  viscosity: 6.564 ± 0.049 mPa·s
313.15 K, 101.3 kPa, x1 = 0.5412
  viscosity: 8.588 ± 0.062 mPa·s
313.15 K, 101.3 kPa, x1 = 0.6257
  viscosity: 9.367 ± 0.067 mPa·s
313.15 K, 101.3 kPa, x1 = 0.7264
  viscosity: 9.85 ± 0.07 mPa·s
313.15 K, 101.33 kPa, x1 = 0.0506
  viscosity: 1.002 ± 0.013 mPa·s
313.15 K, 101.33 kPa, x1 = 0.069
  viscosity: 1.161 ± 0.029 mPa·s
313.15 K, 101.33 kPa, x1 = 0.11
  viscosity: 1.616 ± 0.039 mPa·s
318.15 K, 101.3 kPa, x1 = 0.1122
  viscosity: 1.373 ± 0.011 mPa·s
318.15 K, 101.3 kPa, x1 = 0.2278
  viscosity: 2.732 ± 0.021 mPa·s
318.15 K, 101.3 kPa, x1 = 0.3067
  viscosity: 3.886 ± 0.03 mPa·s
318.15 K, 101.3 kPa, x1 = 0.4076
  viscosity: 5.389 ± 0.042 mPa·s
318.15 K, 101.3 kPa, x1 = 0.5412
  viscosity: 6.936 ± 0.052 mPa·s
318.15 K, 101.3 kPa, x1 = 0.7264
  viscosity: 7.97 ± 0.059 mPa·s
318.15 K, 101.3 kPa, x1 = 0.8486
  viscosity: 8.127 ± 0.06 mPa·s
323.15 K, 100 kPa, x1 = 0.1
  viscosity: 1.21 ± 0.02 mPa·s
323.15 K, 100 kPa, x1 = 0.2
  viscosity: 2.16 ± 0.04 mPa·s
323.15 K, 100 kPa, x1 = 0.3
  viscosity: 3.36 ± 0.06 mPa·s
323.15 K, 100 kPa, x1 = 0.5
  viscosity: 5.65 ± 0.1 mPa·s
323.15 K, 100 kPa, x1 = 0.6
  viscosity: 6.38 ± 0.11 mPa·s
323.15 K, 100 kPa, x1 = 0.7
  viscosity: 6.84 ± 0.12 mPa·s
323.15 K, 100 kPa, x1 = 0.8
  viscosity: 6.94 ± 0.12 mPa·s
323.15 K, 100 kPa, x1 = 0.9
  viscosity: 6.93 ± 0.12 mPa·s
323.15 K, 101.33 kPa, x1 = 0.0506
  viscosity: 0.8163 ± 0.01 mPa·s
323.15 K, 101.33 kPa, x1 = 0.069
  viscosity: 0.936 ± 0.024 mPa·s
323.15 K, 101.33 kPa, x1 = 0.11
  viscosity: 1.277 ± 0.031 mPa·s
323.15 K, 101.33 kPa, x1 = 0.112
  viscosity: 1.26 ± 0.016 mPa·s
